We go through 75 sequences from PMC5515408.

The list shows a part of the results. At the low end of the ranking, values are background and their order means little.

For the assay, the target named is MAX:MAX (p21) (UniProt P61244-2). Description: protein-binding microarray (anti-MAX antibody). The conditions noted are these: PBM: 15 mM Tris-HCl pH 7.5, 100 mM KCl, 0.075% NP40, 7.5 mM beta-mercaptoethanol, 375 ng/ul BSA, 8 ng/ul poly(dA-dT):(dA-dT), 550 ng complex, 60 min, room …; high values mean tight binding; double strand, one strand shown; sequences stand for … in CCGGC…TTAATAGCTAAGATTACTATATCGACG
On to TGACGAGCTGTA, for which the binding signal (log2 normalized fluorescence) is -0.604.
With TGAGTCCCCGTA, the binding signal (log2 normalized fluorescence) is -0.873.
The value for TGAAAGCAAGTA was -0.0584.
The value for TGAACATGTGTA was 2.94; that for TGACAGGGGGTA was 1.72; that for TGAGCGCCAGTA was -0.611.
In the case of TGAATCCGTGTA, the binding signal (log2 normalized fluorescence) is -0.163.
Turning to TGAACAATCGTA, the binding signal (log2 normalized fluorescence) was -0.744.
As for TGAAAGGGTGTA, the figure is 0.113; as for TGATGAATAGTA, -0.405.
In the case of TGATAGAGCGTA, the binding signal (log2 normalized fluorescence) is -0.987.
As to TGAAGGACTGTA, the binding signal (log2 normalized fluorescence) is -0.606.
In the case of TGAGCCAAAGTA, the binding signal (log2 normalized fluorescence) was -1.15.
Regarding TGAGGTGGAGTA, the binding signal (log2 normalized fluorescence) is -0.433.
TGAGTCATTGTA: the binding signal (log2 normalized fluorescence) is -0.599.
As to TGATAGCGCGTA, the binding signal (log2 normalized fluorescence) was -0.144.
Turning to TGACAAGCAGTA, the binding signal (log2 normalized fluorescence) was -0.299.
The value for TGACTGATTGTA was -0.283; that for TGTCACGTGATA was 3.2; that for TGAACAAATGTA was 0.00639.
As for TGACTAAACGTA, the binding signal (log2 normalized fluorescence) was -0.587.
For the sequence TGATCAGCAGTA, the binding signal (log2 normalized fluorescence) is -0.121.
The value for TGAGGACTAGTA was -1.02; that for TGACTCACCGTA was 0.242; that for TGAAATTTCGTA was -1.02.
With TGATACGTGGTG, the binding signal (log2 normalized fluorescence) came out at 1.24.
GGACCCGTGGTA returned a binding signal (log2 normalized fluorescence) of 2.46.
Turning to TGAGCTACAGTA, the binding signal (log2 normalized fluorescence) is -0.868.
Turning to TGAGCCACTGTA, the binding signal (log2 normalized fluorescence) is -0.778.
Turning to TGATGTTAAGTA, the binding signal (log2 normalized fluorescence) was -0.116.
TGAGGCTAAGTA: the binding signal (log2 normalized fluorescence) is -1.21.
Turning to TGAGTCCCGGTA, the binding signal (log2 normalized fluorescence) is -0.855.
The value for TGATTCTTAGTA was -1.16; that for TGATTCACAGTA was -0.775; that for TGAGCGCGTGTA was 2.88.
For the sequence TGACGCGGGGTA, the binding signal (log2 normalized fluorescence) was 0.91.
For TGACTGCCAGTA, the binding signal (log2 normalized fluorescence) is -0.338.
For TGACCGGGTGTA, the binding signal (log2 normalized fluorescence) came out at 0.197.
Turning to TTACAGGTAGTA, the binding signal (log2 normalized fluorescence) was -0.0209.
Regarding TGAGCGACAGTA, the binding signal (log2 normalized fluorescence) is -0.4.
Regarding TGAGTTGGGGTA, the binding signal (log2 normalized fluorescence) is -0.499.
In the case of TGAATTAAGGTA, the binding signal (log2 normalized fluorescence) was -0.965.
With TGAAGCCGCGTA, the binding signal (log2 normalized fluorescence) was -0.834.
In the case of TGAAAGTCTGTA, the binding signal (log2 normalized fluorescence) was -0.78.
For the sequence TGAAGAGGTGTA, the binding signal (log2 normalized fluorescence) is -0.378.
Take TGAACCCTAGTA: the binding signal (log2 normalized fluorescence) was -0.686.
Take TGACCCCTAGTA: the binding signal (log2 normalized fluorescence) is -0.464.
TGATTGAGTGTA: the binding signal (log2 normalized fluorescence) is -0.596.
With TGATTATTGGTA, the binding signal (log2 normalized fluorescence) is -0.994.
On to TGATGTTCTGTA, for which the binding signal (log2 normalized fluorescence) is -0.0796.
As to TGACCTCTAGTA, the binding signal (log2 normalized fluorescence) is -0.689.
With TGATATATGGTA, the binding signal (log2 normalized fluorescence) is -0.755.
The value for GCACACGTGCTA was 3.04; that for TGAGTCTGTGTA was -0.957; that for TGCCACGCGGTG was 3.23.
For TGACACGGCTTA, the binding signal (log2 normalized fluorescence) was determined as 0.66.
With TGAGGTACAGTA, the binding signal (log2 normalized fluorescence) is -0.893.
For TGAGTAGTGGTA, the binding signal (log2 normalized fluorescence) was -0.298.
As for TGACGTTCGGTA, the figure is -0.219; as for TGATAGTCCGTA, -1.13; as for TGAACACTCGTA, 0.0034.
Turning to TGACCACCGGTA, the binding signal (log2 normalized fluorescence) was 0.83.
The value for TGAACACGTGTA was 3.24; that for TGAATCGCAGTA was -0.846.
For TGAAACTTAGTA, the binding signal (log2 normalized fluorescence) is -0.884.
As for TGACTGGCCGTA, the figure is -0.589.
As for TGACCCTAGGTA, the binding signal (log2 normalized fluorescence) was -0.618.
Regarding TGAGACTTGGTA, the binding signal (log2 normalized fluorescence) was -1.15.
For TGAAGCGTGGTA, the binding signal (log2 normalized fluorescence) came out at 3.04.
As for TGAGGAGACGTA, the figure is -0.678; as for TGAACGAGAGTA, -0.412.
Regarding TGACCAGCTGTA, the binding signal (log2 normalized fluorescence) is 0.294.
The value for TGAAATCAGGTA was -0.576; that for TGACCTAAAGTA was -0.586; that for TGACCACCTGTA was 2.52.
